Test results published in PMC12136788.
This is one part of the list.

T1: UNK ZnF1-6 (called full-length) (human, UniProt Q9C0B0 30-357)
T1 sequence: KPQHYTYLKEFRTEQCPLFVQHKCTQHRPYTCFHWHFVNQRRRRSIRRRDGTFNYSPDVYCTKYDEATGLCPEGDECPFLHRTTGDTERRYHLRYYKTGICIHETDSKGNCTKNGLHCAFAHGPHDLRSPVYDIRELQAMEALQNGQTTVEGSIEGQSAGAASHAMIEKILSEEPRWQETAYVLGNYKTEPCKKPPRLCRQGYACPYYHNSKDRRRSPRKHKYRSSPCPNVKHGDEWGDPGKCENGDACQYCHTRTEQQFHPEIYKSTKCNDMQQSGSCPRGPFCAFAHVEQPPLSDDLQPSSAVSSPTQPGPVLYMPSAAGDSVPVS

B1: chr17:29498396:29498497:+|CDS|ENSG00000160551|msi1|total|mutant (ssRNA)
RNA: GGGAGUUCUACAGUCCGACGAUCCAGCAGCCAAAGCAGCCGUGUUAACAGUCUUCCAGAUGUCUCAGAUGACAAGAGUGAGCCCGACAUGAUGGAGGGAGACCACACAGUGAUGUCUAACAGUUCUGUUAUCCAUUUAAAACCCAACAGAGGAUUGAGCAUCA
B2: chr6:83525322:83525423:+|3pUTR|ENSG00000146250|msi1|total|mutant (ssRNA)
RNA: GGGAGUUCUACAGUCCGACGAUCACAAUUACAAUGUGUAUUAUUUAAAAAUGGGAGAAACCGUUUGUUCUAUGAAAUAAACCCCGUUCCGAAACCGGGAAGCUGAGACAUUUUAAGAUCUCAAGUUUUUAUUUAACUAAUACUCAACAGAGGAUUGAGCAUCA
B3: chr9:124811826:124811928:+|3pUTR|ENSG00000185585|msi1|FALSE|unique (ssRNA)
RNA: GGGAGUUCUACAGUCCGACGAUCAAGAAAUUUUCUAGCCCAACUCCCUGUUUCAUGAAAGAGAAAAGAGGCUCAGAAAAGUUUAGAGAGCAGCUCAGUGUCACACUGGGAGCUGGGCACAGCCGAUCUCCUUCCAGAAGGGUUCAACAGAGGAUUGAGCAUCA
B4: chr11:123753582:123754518:-|CDS|ENSG00000221931|control|control|control (ssRNA)
RNA: GGGAGUUCUACAGUCCGACGAUCGUGGUGUCUGUGCUAAAUACUAUCCUCACCCCCCUUCUGAAUCCCUUUAUUUAUACUAUUAGAAACAAGGAGGUGAAGGGAGCCUUAAGAAAGGCAAUGACUUGCCCAAAGACUGGUCAUCAACAGAGGAUUGAGCAUCA
B5: chr11:118254921:118255022:-|3pUTR|ENSG00000149573|unk|FALSE|unique (ssRNA)
RNA: GGGAGUUCUACAGUCCGACGAUCACAGCCUCAUUAUUAAGGUCUUAUUUAAUUUCAGAGUGUAAAUUUUUUCAAGUGCUCAUUAGGUUUUAUAAACAAGAAGCUACAUUUUUGCCCUUAAGACACUACUUACAGUGUUAUGACCAACAGAGGAUUGAGCAUCA
B6: chr2:171983412:171983537:+|3pUTR|ENSG00000128708|unk|FALSE|unique (ssRNA)
RNA: GGGAGUUCUACAGUCCGACGAUCUGAUGACUUUAAUUUUAAAAUCUUGUGACAUUUUGCUUAUACUAAAAGUUAUCUAUCUUUAGUUGAAUAUUUUCUUUUGGAGAGAUUGUAUAUUUUAAAAUACUGUUUAGAGUUUAUGAGCAACAGAGGAUUGAGCAUCA
B7: ENSG00000136451:be:win_2501|3pUTR|ENSG00000136451|bound_else_gene|NA|bound_elsewhere_windowed (ssRNA)
RNA: GGGAGUUCUACAGUCCGACGAUCUCCCAAUCAGAGCCUGUUGAUAUUACAACAGGGACAGAUGUGUUAGUUGCUCACUAGAGUUUAUGUCUUAUAUUAAAUUGUAUACAGUUUUUAUUCUAACCACUAACUAGGUAGUGUAUGCAACAGAGGAUUGAGCAUCA
B8: ENSG00000136451:be:win_3651|3pUTR|ENSG00000136451|bound_else_gene|NA|bound_elsewhere_windowed (ssRNA)
RNA: GGGAGUUCUACAGUCCGACGAUCGGCAUGCAGACCCAAAACUGGGUUCUGGCUCUGCCUGCUGGGAUCUGUUAUCUCUGGUGGGCUGGCAGUCAUAAUUCACAAUUCAGACAGCCCAGGCUUCCUCCACAGUGGUCCAAGGAGCAACAGAGGAUUGAGCAUCA
B9: chr15:63694043:63694144:-|CDS|ENSG00000103657|unk|total|mutant (ssRNA)
RNA: GGGAGUUCUACAGUCCGACGAUCAGGACCUAUGCUGAUAAACUGAGUCCCAAAGCCGUUCAAUCCUUGUUGGAUCUACUCUGCCGUCAGUUGAAGAAUUUAUUGUCCCAAACUGGUGUACUACAUAUGGCCUCUUUCGGAGAACAACAGAGGAUUGAGCAUCA
B10: chr5:55135756:55136053:-|three_prime_utr|ENSG00000164287|control|control|control (ssRNA)
RNA: GGGAGUUCUACAGUCCGACGAUCGAAUUGCUUGAACCAGGGAGGCGGAAGUUGCAGUGAGCUGAGACCGUGCCACUGCUCUCUAGCUUGGCUGACAGAGUGAGACUCUGUCUCAAAAAAAAAAAUAUUUUUUUUGGAAAUUUUCAACAGAGGAUUGAGCAUCA
B11: chr3:152462637:152462738:+|3pUTR|ENSG00000152601|msi1|FALSE|unique (ssRNA)
RNA: GGGAGUUCUACAGUCCGACGAUCGAACAACAUUGUCUUUCUUUUCUAGCACAGAGUUAUGCAUUCAAAGAUGCAUACCUAGUUAGUUUCCUAUAUAUUCAUGCCAUCUUGAAAAGACAGACUAUGGUGUAACCAUGAUUCUAUCAACAGAGGAUUGAGCAUCA
B12: ENSG00000070961:be:win_5351|3pUTR|ENSG00000070961|bound_else_gene|NA|bound_elsewhere_windowed (ssRNA)
RNA: GGGAGUUCUACAGUCCGACGAUCUCACCAGAUACACAAUCCUCAGGCUGACAUAAAGUUUACGAGGACUGCUACUAUAACUGAGAGUGCUGACCAAGCAAAGAAACAUUUAGUUGAUGGUGCUUGAUAUUUUUGGUGGGUGGGCAACAGAGGAUUGAGCAUCA
B13: chr10:104129887:104130138:-|three_prime_utr|ENSG00000197748|control|control|control (ssRNA)
RNA: GGGAGUUCUACAGUCCGACGAUCAAAAAAUCAUUUCAUUUGGGUAAAAUGAUUUCCUUUUCUUUCUUACUGGGAAAUUGAAGUAGCAUGUCCUCUGAGUUGCAUGUUUUAGAUAAAAAAUUGUUUAAUUUUAGCCUUAAUUGUCAACAGAGGAUUGAGCAUCA
B14: chr10:94132299:94132400:+|CDS|ENSG00000138193|unk|FALSE|unique (ssRNA)
RNA: GGGAGUUCUACAGUCCGACGAUCUGAGUAUCGCGCCACCCUCCAAAGGACUUCAAUAUCGCAGUACAUCACCGGUUCUCUCCUAGAAGCAACCACGUCUUUGGGAGCAAGAAGUGGCCUUCUCAGUACUUUUGGAGGAUCCACCAACAGAGGAUUGAGCAUCA
B15: chr15:32738025:32738127:+|3pUTR|ENSG00000166923|unk|total|mutant (ssRNA)
RNA: GGGAGUUCUACAGUCCGACGAUCGGAUAUCUGCUGUCACUAUUUUUAUUCAAUAUUAUACUGGAGGUUCUACCCCGGGUAAUCCGGCAAAAAAAAAAAAAAAAAAAAAAAAAAAAAAAAAAAAAAAAAAAAAAAAAAGAAAAGCAACAGAGGAUUGAGCAUCA
B16: chr16:23064695:23064796:-|3pUTR|ENSG00000103404|msi1|FALSE|unique (ssRNA)
RNA: GGGAGUUCUACAGUCCGACGAUCGUUUAUGGAGGGCCUUCUUUGAGCACAGAGGCAAAACUGAAAGCUUCAGGGAUUUGCUGUAGCUGAGGAGCCCUGGGAGCACAGCCCAUCAAGCAAGGGAUGUGAUGGUGUCCUAAAUGGCAACAGAGGAUUGAGCAUCA
B17: chr6:105096826:105097152:-|3pUTR|ENSG00000112276|msi1|FALSE|unique (ssRNA)
RNA: GGGAGUUCUACAGUCCGACGAUCACUUGCAACCUAGUUUUAAAAUACAUGAGGAUUUUAUGAAAGCUUUAUACAGACAUUUAUAGGAAACUCAUUCUUUGAUUUUAGGUGCCAUUUAAAUUGAUAACACUUACUUUAUAAAAACAACAGAGGAUUGAGCAUCA
B18: chr4:109463114:109463221:+|CDS|ENSG00000138802|unk|FALSE|unique (ssRNA)
RNA: GGGAGUUCUACAGUCCGACGAUCAGGAGCACAGCAGUUGUACAGCAGGGGUCCUCCUGCCCCUCAUAUUGUGGGAUCCACUCUAGGAUCUUUCCAAGGUGCUGCAUCGUCAGCAUCCCAUUUGCAUACGAGUGCCUCCCAACCCAACAGAGGAUUGAGCAUCA
B19: chr3:62294290:62294391:+|3pUTR|ENSG00000144724|msi1|total|mutant (ssRNA)
RNA: GGGAGUUCUACAGUCCGACGAUCAACCCGUCCUCUAAAAAUUCCCUAUUACUCCUACCGCAAUCUAAUAAAAACUACCUACACCGUUACUGUUUUCUUUCCUUCUUUGCCAAAUGUUUUAUAAUAAAUCUCUUAAUUACAUACCAACAGAGGAUUGAGCAUCA
B20: chr17:5384886:5384987:+|3pUTR|ENSG00000029725|unk|total|mutant (ssRNA)
RNA: GGGAGUUCUACAGUCCGACGAUCGGUUUAAGACCCGUCCCUUGGAUAAGCCCCAAGCGAAUUUGUCUUCAGAUUAUUAAAAUCCGUGCUGUAAAUCAGGGUGGGCAAUUCACAGCCUUUCUGAACUGACUGAACCCGAGCUUGCAACAGAGGAUUGAGCAUCA
B21: chr2:216674221:216674322:-|3pUTR|ENSG00000115461|msi1|total|mutant (ssRNA)
RNA: GGGAGUUCUACAGUCCGACGAUCGCAUGCCCCAUCUCUCUGCACAGCUGUCCCCUAAACCCAACUCACGUUUCUGUAUGUCUCCGGCCAGUAUCCCAAACCUCUUCCACGUCACUGUUCUUUCCACCCAUUCUCCCUUUGCAUCAACAGAGGAUUGAGCAUCA
B22: chr1:201892154:201892255:+|3pUTR|ENSG00000198892|msi1|total|mutant (ssRNA)
RNA: GGGAGUUCUACAGUCCGACGAUCUGUUUGUCCCCUCUGGGCUGGGGUGGGGGGAGGGAGGAGGUUCCGUCAGCAGCUGGCAGCCGCCCUCCUCUCUGGCUGCCCCACUGGCCACAUCUCUGGCCUGCCCGAUUAAAGCUGUAACAACAGAGGAUUGAGCAUCA

molecular target: T1, UNK ZnF1-6 (called full-length); assay: nsRBNS (natural sequence RNA bind-n-seq); RBNS binding buffer (assumed for nsRBNS): 25 mM Tris pH 7.5, 150 mM KCl, 3 mM MgCl2, 0.01% Triton X-100, 500 ug/ml BSA, 20 U/ml SUPERase-In, 4 C; UNK is unkempt and MSI1 is Musashi-1; names of the RNAs are library labels; protein concentration not given here; high values mean tight binding

Compared with B1, B2 is lower in binding signal: 0.671 enrichment R for the first, 0.641 enrichment R for the second.

Compared with B3, B4 is higher in binding signal: 0.715 enrichment R for the first, 1.14 enrichment R for the second.

Compared with B5, B6 is higher in binding signal: 3.59 enrichment R for the first, 4.24 enrichment R for the second.

First: B7
Second: B8
The binding signal of the first is higher: 12.3 enrichment R for the first, 0.843 enrichment R for the second.

First: B9
Second: B10
The binding signal of the first is lower: 0.357 enrichment R for the first, 0.768 enrichment R for the second.

First: B11
Second: B12
The binding signal of the first is higher: 1.94 enrichment R for the first, 0.586 enrichment R for the second.

Going from B13 to B14, the binding signal falls from 13.5 enrichment R to 0.599 enrichment R.

Compared with B15, B16 is lower in binding signal: 3.68 enrichment R for the first, 0.81 enrichment R for the second.

Going from B17 to B18, the binding signal falls from 1.57 enrichment R to 0.73 enrichment R.

Compared with B19, B20 is lower in binding signal: 3.11 enrichment R for the first, 0.457 enrichment R for the second.

Compared with B21, B22 is lower in binding signal: 1.02 enrichment R for the first, 0.547 enrichment R for the second.
